Residue numbers refer to the chain shown, from its start.
T1: mouse cKIT (Mus musculus, UniProt P05532)
T1 construct: 3.125-50 nM of cKIT receptor extracellular domains (ECD) were diluted in a 2-fold series; purchased Sino Biological Inc 50530-M08H
T1 sequence (P05532 25-527 limits assumed): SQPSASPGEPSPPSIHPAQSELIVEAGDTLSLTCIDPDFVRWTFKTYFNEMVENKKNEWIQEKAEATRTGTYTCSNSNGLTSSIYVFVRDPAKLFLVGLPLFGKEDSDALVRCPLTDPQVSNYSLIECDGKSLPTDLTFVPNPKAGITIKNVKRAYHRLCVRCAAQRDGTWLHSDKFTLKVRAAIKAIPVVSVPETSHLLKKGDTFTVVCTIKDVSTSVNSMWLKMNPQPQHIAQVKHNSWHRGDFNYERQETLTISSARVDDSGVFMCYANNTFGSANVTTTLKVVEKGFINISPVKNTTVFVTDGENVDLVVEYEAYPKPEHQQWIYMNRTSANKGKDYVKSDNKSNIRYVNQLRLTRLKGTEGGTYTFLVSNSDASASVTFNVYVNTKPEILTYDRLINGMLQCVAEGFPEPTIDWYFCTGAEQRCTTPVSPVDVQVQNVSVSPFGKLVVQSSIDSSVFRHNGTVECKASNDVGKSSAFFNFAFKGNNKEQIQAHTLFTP

B1: Anti-cKIT Ab2 (antibody)
heavy: QVQLVQSGAEVKKPGSSVKVSCKASGGTFSSHALSWVRQAPGQGLEWMGGIIPSFGTADYAQKFQGRVTITADESTSTAYMELSSLRSEDTAVYYCARGLYDFDYWGQGTLVTVSSASTKGPSVFPLAPSSKSTSGGTAALGCLVKDYFPEPVTVSWNSGALTSGVHTFPAVLQSSGLYSLSSVVTVPSSSLGTQTYICNVNHKPSNTKVDKRV[human IgG1 Fc left out]
light: DIQMTQSPSSLSASVGDRVTITCRASQDISQDLAWYQQKPGKAPKLLIYDASSLQSGVPSRFSGSGSGTDFTLTISSLQPEDFAVYYCQQYYYLPSTFGQGTKVEIKRTVAAPSVFIFPPSDEQLKSGTASVVCLLNNFYPREAKVQWKVDNALQSGNSQESVTEQDSKDSTYSLSSTLTLSKADYEKHKVYACEVTHQGLSSPVTKSFNRGEC
B2: Anti-cKIT Ab3 (antibody)
heavy: QVQLVQSGAEVKKPGSSVKVSCKASGGTFSSYAISWVRQAPGQGLEWMGTIGPFEGQPRYAQKFQGRVTITADESTSTAYMELSSLRSEDTAVYYCARGGYISDFDVWGQGTLVTVSSASTKGPSVFPLAPSSKSTSGGTAALGCLVKDYFPEPVTVSWNSGALTSGVHTFPAVLQSSGLYSLSSVVTVPSSSLGTQTYICNVNHKPSNTKVDKRV[human IgG1 Fc left out]
light: B1 light with D28S, Q31N, D32Y, V85T, L94E, P95S, S96I
B3: Anti-cKIT Ab1 (antibody)
heavy: B2 heavy with T50V, G52F, F54A, Q57A, R59G
light: B1 light with D28S, Q31N, D32Y, V85T, L94E, P95S, S96I
B4: J11 (conjugate)
heavy: QVQLVQSGAEVKKPGSSVKVSCKASGGTFSSYAISWVRQAPGQGLEWMGTIGPFEGQPRYAQKFQGRVTITADESTSTAYMELSSLRSEDTAVYYCARGGYISDFDVWGQGTLVTVSSASTKGPSVFPLAPSSKSTSGGTAALGCLVKDYFPCPVTVSWNSGALTSGVHTFPAVLQSSGLYSLSSVVTVPSSSLGTQTYICNVNHKPSNTKVDKKVEPKSCDKTH
light: B1 light with D28S, Q31N, D32Y, V85T, L94E, P95S, S96I
modifications: Compound (4) payload
B5: J14 (conjugate)
heavy: QVQLVQSGAEVKKPGSSVKVSCKASGGTFSSYAISWVRQAPGQGLEWMGVIFPAEGAPGYAQKFQGRVTITADESTSTAYMELSSLRSEDTAVYYCARGGYISDFDVWGQGTLVTVSSASTKGPSVFPLAPSSKSTSGGTAALGCLVKDYFPEPVTVSWNSGALTSGVHTFPAVLQSSGLYSLSSVVTVPSSSLGTQTYICNVNHKPSNTKVDKRVEPKSCDKTHTCPPCPAPELLG
light: B1 light with D28S, Q31N, D32Y, V85T, L94E, P95S, S96I
modifications: mc-MMAF payload, DAR 4
B6: J15 (conjugate)
heavy: B5 heavy
light: B1 light with D28S, Q31N, D32Y, V85T, L94E, P95S, S96I
modifications: Compound (5) payload, DAR 4
B7: J16 (conjugate)
heavy: B5 heavy
light: B1 light with D28S, Q31N, D32Y, V85T, L94E, P95S, S96I
modifications: Compound (2) payload, DAR 4
B8: J17 (conjugate)
heavy: QVQLVQSGAEVKKPGSSVKVSCKASGGTFSSHALSWVRQAPGQGLEWMGGIIPSFGTADYAQKFQGRVTITADESTSTAYMELSSLRSEDTAVYYCARGLYDFDYWGQGTLVTVSSASTKGPSVFPLAPSSKSTSGGTAALGCLVKDYFPEPVTVSWNSGALTSGVHTFPAVLQSSGLYSLSSVVTVPSSSLGTQTYICNVNHKPSNTKVDKRVEPKSCDKTHTCPPCPAPELLG
light: B1 light
modifications: mc-MMAF payload, DAR 4
B9: J18 (conjugate)
heavy: B8 heavy
light: B1 light
modifications: Compound (5) payload, DAR 4
B10: J19 (conjugate)
heavy: B8 heavy
light: B1 light
modifications: Compound (2) payload, DAR 4
B11: J20 (conjugate)
heavy: QVQLVQSGAEVKKPGSSVKVSCKASGGTFSSYAISWVRQAPGQGLEWMGTIGPFEGQPRYAQKFQGRVTITADESTSTAYMELSSLRSEDTAVYYCARGGYISDFDVWGQGTLVTVSSASTKGPSVFPLAPSSKSTSGGTAALGCLVKDYFPEPVTVSWNSGALTSGVHTFPAVLQSSGLYSLSSVVTVPSSSLGTQTYICNVNHKPSNTKVDKRVEPKSCDKTHTCPPCPAP
light: B1 light with D28S, Q31N, D32Y, V85T, L94E, P95S, S96I
modifications: mc-MMAF payload, DAR 4
B12: J21 (conjugate)
heavy: B5 heavy with V50T, F52G, A54F, A57Q, G59R
light: B1 light with D28S, Q31N, D32Y, V85T, L94E, P95S, S96I
modifications: Compound (5) payload, DAR 4
B13: J22 (conjugate)
heavy: B11 heavy
light: B1 light with D28S, Q31N, D32Y, V85T, L94E, P95S, S96I
modifications: Compound (2) payload, DAR 4, native cysteine conjugation
B14: J10 (conjugate)
heavy: B5 heavy with V50T, F52G, A54F, A57Q, G59R, E153C
light: B1 light with D28S, Q31N, D32Y, V85T, L94E, P95S, S96I
modifications: Compound (5) payload

tested on: rat cKIT; assay: Cross reactivity of cKIT antibodies to rat cKIT; assay type: binding; details: not given
Experimental: (§1) Affinity of the antibodies to cKIT species orthologues and also to human cKIT was determined using SPR technology using a Biacore® 2000 instrument (GE Healthcare, Pittsburgh, Pa.) and with CM5 sensor chips. Briefly, HBS-P (0.01 M HEPES, pH 7.4, 0.15 M NaCl, 0.005% Surfactant P20) supplemented with 2% Odyssey® blocking buffer (Li-Cor Biosciences, Lincoln, Nebr.) was used as the running buffer for all the experiments. The immobilization level and analyte interactions were measured by response unit (RU). Pilot experiments were performed to test and confirm the feasibility of the immobilization of the anti-human Fc antibody (Catalog number BR100839, GE Healthcare, Pittsburgh, Pa.) and the capture of the test antibodies. For kinetic measurements, the experiments were performed in which the antibodies were captured to the sensor chip surface via the immobilized anti-human Fc antibody and the ability of the cKIT proteins to bind in free solution was determined. Briefly, 25 μg/ml of anti-human Fc antibody at pH 5 was immobilized on a CM5 sensor chip through amine coupling at flow rate of 5 μl/min on both flow cells to reach 10,500 RUs. 0.1-1 μg/ml of test antibodies were then injected at 10 μl/min for 1 minute. Captured levels of the antibodies were generally kept below 200 RUs. Subsequently, 3.125-50 nM of cKIT receptor extracellular domains (ECD) were diluted in a 2-fold series and injected at a flow rate of 40 μl/min for 3 min over both reference and test flow cells. A table of tested ECDs is listed below (Table 5). Dissociation of ECD binding was followed for 10 min. After each injection cycle, the chip surface was regenerated with 3 M MgCl2 at 10 μl/min for 30 seconds.

| Molecule | Reactivity to rat cKIT |
| --- | --- |
| B1 | Not reactive |
| B2 | Not reactive |
| B3 | Not reactive |

molecular target: T2, human cKIT ECD (Homo sapiens, UniProt P10721); assay: Affinity measurement of cKIT antibodies to human cKIT ECD; assay type: binding; details: read-out: KD (pM) to human cKIT ECD in SET
T2 construct: 26-520-TAG; host or cells: HEK293 derived cell line 293FS, transient transfection
Experimental: as §1, with “Subsequently, 3.125-50 nM of cKIT receptor extracellular domains (ECD) were diluted in a 2-fold series and injected at a flow rate of 40 μl/min for 3 min over both reference and test flow cells. A table of tested ECDs is listed below (Table 5). Dissociation of ECD binding was followed for 10 min. After each injection cycle, the chip surface was regenerated with 3 M MgCl2 at 10 μl/min for 30 seconds.” left out

T2 sequence (P10721 with tags, fused parts or gaps isoform P10721-2): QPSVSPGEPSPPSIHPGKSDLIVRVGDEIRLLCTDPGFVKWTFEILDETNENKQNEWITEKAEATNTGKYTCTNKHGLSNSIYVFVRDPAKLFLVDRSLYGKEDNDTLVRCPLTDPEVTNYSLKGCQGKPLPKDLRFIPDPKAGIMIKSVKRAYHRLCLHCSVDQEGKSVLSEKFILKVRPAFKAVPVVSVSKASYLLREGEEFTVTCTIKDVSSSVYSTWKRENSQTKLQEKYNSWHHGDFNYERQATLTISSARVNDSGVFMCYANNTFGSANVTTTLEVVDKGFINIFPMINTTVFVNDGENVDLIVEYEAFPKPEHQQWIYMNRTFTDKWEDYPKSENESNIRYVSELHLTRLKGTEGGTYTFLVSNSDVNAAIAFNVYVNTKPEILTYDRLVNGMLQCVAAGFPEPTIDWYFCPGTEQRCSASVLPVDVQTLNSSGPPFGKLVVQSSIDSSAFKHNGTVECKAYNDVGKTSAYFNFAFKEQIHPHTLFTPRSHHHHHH

| Molecule | Kd [pM] |
| --- | --- |
| B2 | 160 |

molecular target: T1, mouse cKIT; assay: Cross reactivity of cKIT antibodies to mouse cKIT; assay type: binding; details: not given
Experimental: as §1

| Molecule | Reactivity to mouse cKIT |
| --- | --- |
| B1 | Not reactive |
| B2 | Not reactive |
| B3 | Not reactive |

tested on: not listed separately; assay: Determination of DAR (compound-to-antibody ratio) by LC-MS; assay type: physicochemical; details: drug (payload)-to-antibody fragment ratio of the conjugate
Experimental: DAR value of the cKIT ADC was evaluated by liquid chromatography-mass spectrometry (LC-MS). A compound-to-antibody ratio was extrapolated from LC-MS data for reduced and deglycosylated (when appropriate, i.e. when Fc is included) samples. LC-MS allows quantitation of the average number of molecules of linker-payload (compound) attached to an antibody in a conjugate sample.
Antibody and antibody fragment conjugates were analyzed to determine extent of conjugation. A compound-to-antibody ratio was extrapolated from LC-MS data for reduced and deglycosylated (where appropriate) samples. LC/MS allows quantitation of the average number of molecules of linker-payload (compound) attached to an antibody in a conjugate sample. High pressure liquid chromatography (HPLC) separates antibody into light and heavy chains, and under reducing conditions, separates heavy chain (HC) and light chain (LC) according to the number of linker-payload groups per chain. Mass spectral data enables identification of the component species in the mixture, e.g., LC, LC+1, LC+2, HC, HC+1, HC+2, etc. From the average loading on the LC and HC chains, the average compound to antibody ratio can be calculated for an antibody conjugate. A compound-to-antibody ratio for a given conjugate sample represents the average number of compound (linker-payload) molecules attached to a tetrameric antibody containing two light chains and two heavy chains.

| Molecule | DAR |
| --- | --- |
| B4 | 0.9 |
| B5 | 4 |
| B6 | 4 |
| B7 | 4 |
| B8 | 4 |
| B9 | 4 |
| B10 | 4 |
| B11 | 4 |
| B12 | 4 |
| B13 | 4 |
| B14 | 2 |

— patent publication US11357864B2, “Antibody drug conjugates for ablating hematopoietic stem cells” (priority 2016, dated 2022)
